From paper PMC4336329 (PLoS ONE, 2015)
Among all 310,000 compounds or so, about 2,200 (0.71%) showed an effect of 50% or more. Effects have a minus sign here. The list shows a part of the results.

Molecular target: human ether-à-go-go-related gene (hERG) potassium channel (human, UniProt Q12809)
Test: primary screen, population patch clamp on CHO cells stably expressing hERG

Chain of human ether-à-go-go-related gene (hERG) potassium channel (Q12809 whole entry, looked up): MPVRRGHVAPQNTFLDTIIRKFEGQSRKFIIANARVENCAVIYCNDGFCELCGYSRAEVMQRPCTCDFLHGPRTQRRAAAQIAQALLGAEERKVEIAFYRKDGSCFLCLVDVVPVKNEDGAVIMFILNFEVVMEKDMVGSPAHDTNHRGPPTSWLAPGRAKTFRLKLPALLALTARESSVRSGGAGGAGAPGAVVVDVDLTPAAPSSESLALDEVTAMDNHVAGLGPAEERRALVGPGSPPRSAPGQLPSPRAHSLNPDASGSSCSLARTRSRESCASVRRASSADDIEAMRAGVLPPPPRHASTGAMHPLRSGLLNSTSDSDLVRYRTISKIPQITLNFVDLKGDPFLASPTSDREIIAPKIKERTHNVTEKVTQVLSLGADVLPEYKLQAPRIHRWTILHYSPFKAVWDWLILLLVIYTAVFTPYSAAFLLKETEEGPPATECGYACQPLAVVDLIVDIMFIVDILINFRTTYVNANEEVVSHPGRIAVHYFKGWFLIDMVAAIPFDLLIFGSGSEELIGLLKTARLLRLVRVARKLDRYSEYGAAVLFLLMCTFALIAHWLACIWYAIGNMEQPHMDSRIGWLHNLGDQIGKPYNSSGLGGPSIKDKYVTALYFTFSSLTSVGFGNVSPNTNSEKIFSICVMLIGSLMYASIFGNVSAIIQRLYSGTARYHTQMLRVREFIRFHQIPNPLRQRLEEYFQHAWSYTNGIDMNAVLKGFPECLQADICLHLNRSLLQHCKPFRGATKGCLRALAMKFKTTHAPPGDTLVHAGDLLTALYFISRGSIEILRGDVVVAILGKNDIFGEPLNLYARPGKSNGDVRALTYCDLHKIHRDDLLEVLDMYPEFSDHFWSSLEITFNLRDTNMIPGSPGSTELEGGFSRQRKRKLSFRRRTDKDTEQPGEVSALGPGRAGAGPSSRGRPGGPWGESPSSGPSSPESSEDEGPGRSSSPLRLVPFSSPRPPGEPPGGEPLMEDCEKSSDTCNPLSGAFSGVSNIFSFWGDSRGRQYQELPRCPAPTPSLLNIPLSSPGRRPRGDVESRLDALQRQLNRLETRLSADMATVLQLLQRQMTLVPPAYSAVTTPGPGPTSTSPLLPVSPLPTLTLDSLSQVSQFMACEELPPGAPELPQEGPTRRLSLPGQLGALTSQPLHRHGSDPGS

| SMILES | hERG current change (%, negative = inhibition) at 1uM |
| --- | --- |
| COc1ccc(C(=O)Nc2cc3c(cc2N2CCCCC2)n(C)c(=O)n3C)cc1OC | 17.1% |
| COc1ccc(/C=C2\CCC(C3CCCC3)C2=O)c(OC)c1 (stereo not drawn) | 10.1% |
| COc1ccccc1-c1nnc(SCC(=O)c2c(N)n(C3CC3)c(=O)[nH]c2=O)o1 | 5.55% |
| CCC(Oc1ccccc1OC)C(=O)Nc1ccc2c(c1)n(C)c(=O)n2C (stereo not drawn) | 7.49% |
| O=C(C1CC(c2ccc(Cl)c(Cl)c2)=NO1)N1CCC2(CC1)OCCO2 (stereo not drawn) | -4.53% |
| CC1=C(C)CC(C(=O)Nc2nc(C)cs2)C(C(=O)O)C1 (stereo not drawn) | 15.1% |
| COC(=O)c1ccccc1NC(=S)NC(=O)c1ccc2ccccc2c1 | 22.9% |
| O=C(COC(=O)CCc1nc2ccccc2s1)Nc1cccc(S(=O)(=O)N2CCOCC2)c1 | 8.14% |
| CCCCOC(=O)CCc1c(C)n[nH]c1C | 1.65% |
| Cc1csc(SCC(=O)N(C)c2c(N)n(Cc3ccccc3)c(=O)[nH]c2=O)n1 | 7.97% |
| CCc1ccc(OCC(O)CN2CCN(c3ccccn3)CC2)cc1.Cl (stereo not drawn) | -45.9% |
| CCOC(=O)CSc1nc(C)c2cc(OC)ccc2n1 | 8.23% |
| CC(C)c1ccc(NCCC(=O)c2cccs2)cc1 | 5.04% |
| O=C(NCc1ccccc1Cl)/C(=C\c1cccnc1)NC(=O)c1ccccc1 | -10.3% |
| Cc1csc(NC(=O)c2ccc(C)s2)n1 | 9.89% |
| O=C(NCc1ccco1)/C(=C\c1ccco1)NC(=O)c1cccs1 | -1.88% |
| CCCCNC(=O)c1onc(CSc2ccc(Cl)cc2)c1C(=O)O | -0.733% |
| CCN1CCN(Cc2c(O)ccc3c(=O)c(-c4ccc(OC)c(OC)c4)c(C(F)(F)F)oc23)CC1 | 2.89% |
| CCOC(=O)Cc1csc(NC(=O)c2ccoc2C)n1 | 7.62% |
| N#CCC(N)=C(C#N)C#N | -3.07% |
| Cc1onc(-c2ccccc2)c1C(=O)N1CCN(c2ccccc2)CC1 | 16.1% |
| COCC(=O)N1CCC(Oc2ccc(C(=O)NC(C)c3nc(C)sc3C)cc2)CC1 (stereo not drawn) | 14.6% |
| c1ccc(Cn2nnnc2-c2ccco2)cc1 | 1.7% |

| SMILES | hERG current change (%, negative = inhibition) at 1uM |
| --- | --- |
| Cc1cc(C)c(NC(=O)c2ccc(CN3CCc4ccccc4C3)cc2)c(C)c1 | 9.29% |
| Cn1cnc(S(=O)(=O)Nc2ccccc2N2CCOCC2)c1 | 5.97% |
| COc1ccc(C(C(=O)NC2CCCC2)N(C(=O)c2ccco2)c2cc3c(cc2C(C)=O)OCO3)cc1 (stereo not drawn) | 10.1% |
| COc1ccc(C(=O)OCc2ccc(C)cc2)cc1S(=O)(=O)N1CCOCC1 | 1.9% |
| COCCNC(=O)/C(C#N)=C/c1ccc(OCc2ccccc2)cc1 | 18% |
| Br.N=C(N)SCCc1cnc[nH]1 | 8.33% |
| COC(=O)c1ccc2c(=O)[nH]c(COC(=O)CCC(=O)c3ccc(Cl)cc3)nc2c1 | 2.37% |
| CCOc1ccccc1C(=O)NC1CCN(CC(=O)Nc2cc(OC)ccc2OC)CC1 | -25.6% |
| O=C(C1CCN(S(=O)(=O)N2CCC3(CC2)OCCO3)CC1)N1CCN(Cc2ccccc2)CC1 | 9.8% |
| COc1ccc(C(=O)N/C(=C\c2cn(S(=O)(=O)N(C)C)c3ccccc23)C(=O)NC(C)C)cc1 | 15.9% |
| COC(=O)C1=C(N)N(c2ccccc2C(F)(F)F)C2=C(C(=O)CCC2)C1c1ccc2c(c1)OCO2 (stereo not drawn) | 16.2% |
| CC(C)C(NC(=O)COc1ccc2ccccc2c1)C(=O)N/N=C/C=C/c1ccccc1 (stereo not drawn) | 11.3% |
| O=C(CCNS(=O)(=O)c1ccccc1)Nc1ccccc1 | 17.8% |
| CN(CC(=O)NCc1ccccc1)S(=O)(=O)c1ccc2c(c1)CCC(=O)N2 | 9.2% |
| CN(C)c1ccc(C(CNC(=O)Cc2cccc3ccccc23)N(C)C)cc1 (stereo not drawn) | 5.41% |
| CCCCNCc1cc(OC)c(OCC(N)=O)cc1Br | 14.8% |
| COc1cc2c(cc1OC)C(COc1ccccc1OC)N(C(C)=O)CC2 (stereo not drawn) | 18.9% |
| CCOC(=O)N1CCC(C(N)=O)CC1 | 13.2% |
| O=C(N/N=C/C=C/c1ccco1)c1cnccn1 | 9.26% |
| O=c1c2ccc([N+](=O)[O-])cc2ncn1Cc1ccccc1C(F)(F)F | -10.5% |
| CC(=NCCCn1ccnc1)c1c(-c2ccccc2)[nH]n(-c2nc3ccccc3s2)c1=O | -5.59% |
| CC(=O)NC(C)c1cc(Cl)c2cccnc2c1O (stereo not drawn) | 12.1% |
